# The campaign covered roughly 280,000 compounds. About 100 (0.036%) were called active. The shares of active, inactive and inconclusive entries below differ from those in the screen. Calls come from the whole dose curve; as a rule, active = well fitted inhibition curve with a large enough effect in the signal ratio, with a control signal flat (not every such curve was filed as active); inconclusive = small, poorly fitted or top-dose-only effect, or effect the other way, or a change in a side signal; inactive = no such curve, though single readings can be large or run the other way; the % refers to the signal ratio. Where the call is inconclusive, the potency comes from a doubtful curve fit. “Side channel” marks fits to a control or component signal instead of the main read-out.
# Target: Muscleblind-like protein 1 (Homo sapiens) (UniProt Q9NR56)
# UniProt Q9NR56, sequence (Q9NR56 whole entry, looked up): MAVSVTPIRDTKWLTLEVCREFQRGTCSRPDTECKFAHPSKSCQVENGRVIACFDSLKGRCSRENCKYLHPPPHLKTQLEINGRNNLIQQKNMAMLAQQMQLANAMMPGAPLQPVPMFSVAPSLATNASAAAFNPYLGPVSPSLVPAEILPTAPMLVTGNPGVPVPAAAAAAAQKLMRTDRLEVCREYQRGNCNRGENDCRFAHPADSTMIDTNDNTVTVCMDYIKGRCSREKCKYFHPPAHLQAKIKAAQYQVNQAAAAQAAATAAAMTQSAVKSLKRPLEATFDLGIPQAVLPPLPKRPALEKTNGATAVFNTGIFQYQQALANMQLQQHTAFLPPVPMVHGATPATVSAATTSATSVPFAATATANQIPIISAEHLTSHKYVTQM
# Experiment: qHTS Assay for Inhibitors of MBNL1-poly(CUG) RNA binding
# Settings: TR-FRET MBNL1-His/biotin-(CUG)12 binding, 665/545 ratio; activity change, negative = inhibition: at 57.5 µM (top of the series)
# Method in brief: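 Inhibition of protein-RNA binding appears as loss of TR-FRET between terbium anti-His antibody on MBNL1-His and streptavidin-XL665 on biotin-(CUG)12. Activity is normalized to buffer-only and uninhibited-complex controls.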
# % is set by controls: 0 for no effect and ±100 for the full control effect; potency is the fitted concentration of half-maximal effect; tags give direction and shape of the fitted curve or compound fluorescence and quenching.
Structure (SMILES),Potency,"activity change, negative = inhibition"
O=C(c1ccccc1)c1coc2c1C(=O)c1ccccc1C2=O,"inconclusive: 14.1 µM [quencher, partial curve]",–
Cc1ccc(S(=O)(=O)N2CCN(C(=O)c3ccc([N+](=O)[O-])cc3)C2)cc1,"inconclusive: 7.94 µM [quencher, side channel, partial curve]",–
COc1ccc(SC[C@H](CC(C)C)N2CCN(CCc3ccccc3)CCC2=O)cc1,–,inactive: -5.57%
O=C(/C=C/c1cccc([N+](=O)[O-])c1)N1CCN(C(=O)c2ccco2)CC1,–,inactive: 27.9% [at 11.5 µM]
CC1CC(=O)NN=C1c1ccc(N(C)C)c([N+](=O)[O-])c1 (stereo unspecified),"inconclusive: 25.1 µM [quencher, partial curve]",–
COc1cc2cc(-c3ccc(O)cc3O)nc(C)c2cc1OC,"inconclusive: 39.8 µM [quencher, side channel, single point]",–
CCCn1c(S(=O)(=O)O)nc2ccccc21,–,inactive: -12.9%
COc1ccc(C)cc1Nc1n[n+](-c2ccccc2)c(-c2cccc(Cl)c2Cl)s1,–,inactive: 3.46%
CCN(CC)c1ccc2c(-c3ccc(S(=O)(=O)O)cc3S(=O)(=O)[O-])c3ccc(=[N+](CC)CC)cc-3oc2c1,"inconclusive: 0.251 µM [quencher, side channel, full curve, poor fit]",–
O=C(CSc1nnc(-c2cccnc2)n1C1CCCCC1)NC1CCCC1,"inconclusive: 1.58 µM [fluorescent, side channel, full curve, poor fit]",–
Brc1ccc(C2=CC(c3ccco3)n3ncnc3N2)cc1 (stereo unspecified),"inconclusive: 31.6 µM [quencher, side channel, single point]",–
Cc1cc(C)cc(NC(=O)Nn2cnnc2)c1,"inconclusive: 100 µM [inhibitor, single point]",–
Cn1c(CCNC(=O)C2CCCCC2)nc2cc([N+](=O)[O-])ccc21,"inconclusive: 17.8 µM [quencher, side channel, partial curve]",–
CC1=NN(C(=O)Cc2ccc([N+](=O)[O-])cc2)C(O)(c2ccccc2)C1 (stereo unspecified),"inconclusive: 14.1 µM [quencher, side channel, partial curve]",–
COc1ccc(/C=C/c2nc(N)nc(-c3ccccc3O)n2)cc1OC,"inconclusive: 39.8 µM [quencher, side channel, partial curve, poor fit]",–
O=c1c(Cl)c(N2CCCCC2)cnn1-c1nc2ccccc2[nH]1,"inconclusive: 11.2 µM [quencher, side channel, partial curve]",–
O=C(N/N=C/c1cccs1)C1COc2ccccc2O1 (stereo unspecified),"inconclusive: 14.1 µM [quencher, side channel, partial curve]",–
COc1cc2c(cc1OC)/C(=C/C(=O)c1ccccc1F)NCC2,–,inactive: 7.4%
CCOC(=O)N1CCC(c2cc(=O)n3[nH]c(-c4ccccc4)cc3n2)CC1,"inconclusive: 0.158 µM [quencher, side channel, full curve]",–
CCOC(=O)c1cccc(NC(=O)CS(=O)(=O)Cc2nc(-c3cccc(OC)c3)oc2C)c1,"inconclusive: 12.6 µM [inhibitor, single point]",–
COc1ccccc1NC(=S)NC(=O)CC(C)C,–,inactive: 0.13%

Structure (SMILES),Potency,"activity change, negative = inhibition"
CCOC(=O)c1cc2c(=O)n3cccc(C)c3nc2n(CCOC)c1=NC(C)=O,"inconclusive: 4.47 µM [quencher, side channel, full curve]",–
O=C(O)/C=C/C(=O)NC1CCCCC1,"inconclusive: 11.2 µM [fluorescent, side channel, full curve]",–
N/C(=N\O)c1cn(Cc2ccccc2Cl)c2ccccc12,–,inactive: -2.31%
C/C(=N\NC(=O)Cn1nc(C)cc1C)c1ccc([N+](=O)[O-])cc1,"inconclusive: 5.62 µM [quencher, side channel, full curve]",–
c1ccc(-c2ccccc2OCCN2CCCC2)cc1,–,inactive: -9.31%
O=C(/C=C/c1ccco1)Nc1ccc(S(=O)(=O)N2CCOCC2)cc1,"inconclusive: 28.2 µM [quencher, side channel, single point]",–
[O-][n+]1c2ccc3nonc3c2nn1-c1ccccc1Cl,"inconclusive: 14.1 µM [quencher, partial curve]",–
CCCCC[n+]1cccc2c3ccccc3ccc21,"inconclusive: 14.1 µM [quencher, side channel, partial curve]",–
COc1ccccc1NC(=O)CCC(=O)Nc1ccccc1OC,–,inactive: 23.1%
CNc1ccccc1-c1nc2ccccc2n(C)c1=O,"inconclusive: 22.4 µM [quencher, side channel, single point]",–
Cc1nn(C)c(C(=O)N/N=C/c2ccccn2)c1[N+](=O)[O-],"inconclusive: 31.6 µM [quencher, side channel, single point]",–
O=c1[nH]nc(-c2ccc(NCCO)c([N+](=O)[O-])c2)c2ccccc12,"inconclusive: 10 µM [quencher, side channel, partial curve]",–
Cc1ccc(S(=O)(=O)N2CCN(CC(=O)N/N=C/c3ccco3)CC2)cc1,–,inactive: 7.57%
CC1CN(CCCOc2ccc([N+](=O)[O-])cc2)CC(C)O1 (stereo unspecified),"inconclusive: 22.4 µM [quencher, side channel, single point]",–
Cc1ccc(NC(=O)CSc2nnc(Cc3cccn3C)n2-c2ccc(F)cc2)c(C)c1,–,inactive: 0.246%
COc1ccc(S(=O)(=O)Nc2ccc3c(c2)n(C)c(=O)n3C)cc1C,–,inactive: -1.2%
CC(=O)c1ccc(NC(=O)/C(=C\c2cccs2)NC(=O)c2ccco2)cc1,"inconclusive: 20 µM [quencher, side channel, partial curve]",–
CC(=O)Nc1ccc(NC(=S)NC(=O)/C=C/c2ccco2)cc1,"inconclusive: 31.6 µM [quencher, side channel, partial curve]",–
CN(C)C(=O)CN1C(=O)c2cccc3cccc1c23,"inconclusive: 22.4 µM [quencher, side channel, partial curve]",–
COc1ccccc1NC(=O)c1cc2cc(Br)ccc2cc1O,"inconclusive: 22.4 µM [fluorescent, side channel, single point]",–

# Source: PubChem BioAssay AID2675 (National Center for Advancing Translational Sciences (NCATS), 2010)
